Data from US20230133118A1, “COMPOSITIONS AND METHODS FOR TREATING CANCER” (Adagene AG, priority 2020, published 2023).

System: advanced or metastatic solid tumors and/or non-Hodgkin lymphoma
Assay: Phase 1 clinical studies of ADG106 (US NCT03707093, China NCT03802955): anti-tumor efficacy
Assay type: in vivo, human
Parameters: key to Response: CR: disappearance of all target lesions; PR: at least a 30% decrease in the sum of the longest diameters (SLD) of target lesions; SD: neither sufficient shrinkage of target lesions to qualify for PR, nor sufficient increase to qualify for PD; PD: at least a 20% increase in the SLD of target lesions
[1] = China update, 48 patients with post-tumor scans
[2] = US update, 23 patients with post-tumor scans
[3] = dose escalation 1.5 mg/kg CN n=5
[4] = dose escalation 3.0 mg/kg US n=3, CN n=3

## ADG106: fully human agonistic anti-CD137 monoclonal IgG4 antibody; heavy chain SEQ ID NO: 10, light chain SEQ ID NO: 11
China update
  Disease control rate: 58%
  patients with tumor shrinkage: 10 patients
[1]
  best response PD: 20 patients
  best response PR: 1 patient
  best response SD: 27 patients
US update
  CR or PR: there was no CR or PR
  patients with tumor shrinkage: 3 patients
[2]
  Disease control rate: 52%
  best response PD: 11 patient
  best response SD: 12 patient
US update, patient with endometrial carcinoma
  tumor size decreased: 5%
US update, patient with esophageal carcinoma
  tumor size decreased: 18%
US update, patient with follicular lymphoma
  tumor size decreased: 2%
Accelerated titration 0.03 mg/kg US n=1
  Stable Disease, patients: 1
Accelerated titration 0.1 mg/kg US n=1, CN n=1
  Progressive disease, patients: 2
Accelerated titration 0.3 mg/kg US n=1
  Stable Disease, patients: 1
Among the 17 patients with stable disease
  patients with tumor size reduction: 7 patients
Clinical responses and exploratory PD analysis, monotherapy
  pharmacologically active dose: ≥ 1 mg/kg
Dose escalation 0.5 mg/kg CN n=3
  Stable Disease, patients: 1
Dose escalation 1.0 mg/kg US n=4
  Stable Disease, patients: 1
[3]
  Progressive disease, patients: 3
  Stable Disease, patients: 2
[4]
  Progressive disease, patients: 2
  Stable Disease, patients: 4
Dose escalation 5.0 mg/kg US n=3, CN n=3
  Stable Disease, patients: 4
Dose escalation 10.0 mg/kg US n=3, CN n=2
  Progressive disease, patients: 2
Dose expansion 3.0 mg/kg US n=3, CN n=3
  Stable Disease, patients: 3
Individual patient, 0.1 mg/kg, NSCLC
  Response: PD (at least a 20% increase in the SLD of target lesions)
Individual patient, 0.5 mg/kg, NSCLC
  Response: SD
Individual patient, 1.5 mg/kg, NSCLC
  Response: PD (at least a 20% increase in the SLD of target lesions)
Individual patient, 3 mg/kg, AITL
  Response: SD
Individual patient, 3 mg/kg, Melanoma
  Response: SD
Individual patient, 3 mg/kg, NSCLC
  Response: SD
Individual patient, 5 mg/kg, Mucinous adenocarcinoma
  Response: SD
Individual patient, 10 mg/kg, NSCLC
  Response: SD
Individual patients, 0.5 mg/kg, NPC
  Response: PD (at least a 20% increase in the SLD of target lesions)
Individual patients, 3 mg/kg, ACC
  Response: SD
Individual patients, 5 mg/kg, Lymphoma
  Response: SD
Individual patients, 5 mg/kg, NPC
  Response: PD (at least a 20% increase in the SLD of target lesions); also recorded: PR (at least a 30% decrease in the sum of the longest diameters (SLD) of target lesions)
Lymphoma patient with 20.54% CD137L expression, two cycles
  tumor shrinkage: 32%
Lymphoma patient with 23.08% CD137L expression, two cycles
  tumor shrinkage: 36%
Overall N=40
  Progressive disease, patients: 13
  Progressive disease, percent of patients: (32.5) %
  Stable Disease, patients: 17
Patient R017, after one cycle
  tumor size reduction: > 30%
Patient R017, angioimmunoblastic T cell lymphoma, after four cycles
  tumor shrinkage: 33%
Stage III angioimmunoblastic T cell lymphoma patient, after one dose
  overall tumor shrinkage of the targeted lesions: 33%

“Also recorded” adds a separate entry of the source.
